# Some of the results follow. Repeats are few or missing, and single values can be far off.
# Tested on: COLO792
# Assay: cell count relative to DMSO control; melanoma cells; higher = more viable cells
# Details: library dose: low library concentration; 72 h
# 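Note: cell number obtained by counting DAPI-stained nuclei in high-throughput microscope images with image analysis software, screen run in 1,536-well plates.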
row,SMILES,cell count
1,"COc1cc(N2CCC(N3CCN(C)CC3)CC2)ccc1Nc1ncc(Cl)c(Nc2ccccc2S(=O)(=O)C(C)C)n1 + Cn1cc(/C=C2\C(=O)Nc3cccnc32)c2ccccc21 [GW441756] (first compound 0.08 µM, partner dose 0.4 µM)",89.3%
2,"CCN(CC)CCCCNc1ncc2cc(-c3cc(OC)cc(OC)c3)c(NC(=O)NC(C)(C)C)nc2n1 + Cn1cc(/C=C2\C(=O)Nc3cccnc32)c2ccccc21 [GW441756] (first compound 0.1 µM, partner dose 0.4 µM)",82.3%
3,"N#Cc1c(O)c2c(-c3ccc(-c4ccccc4O)cc3)csc2[nH]c1=O + O=c1cc(-c2cccc3c2Sc2ccccc2S3)oc(N2CCOCC2)c1 [KU55933] (first compound 2 µM, partner dose 1 µM)",100%
4,"COc1ccc(COc2ccc(Cc3cnc(N)nc3N)cc2OC)cc1 + CC(C)CCN1c2nc(Nc3cc(F)c(O)c(F)c3)ncc2N(C)C(=O)C1C [BID1870] (first compound 1 µM, partner dose 0.2 µM)",95.7%
5,"COc1cc2ncnc(Nc3ccc(Oc4ccccc4)cc3)c2cc1OC + c1cc(-c2cnn3cc(-c4ccc(OCCN5CCCCC5)cc4)cnc23)ccn1 [Dorsomorphin] (first compound 2 µM, partner dose 0.4 µM)",88.8%
6,"O=C(O)C(=O)Nc1sc2c(c1C(=O)O)CCNC2 + c1cc(-c2cnn3cc(-c4ccc(OCCN5CCCCC5)cc4)cnc23)ccn1 [Dorsomorphin] (first compound 1.66667 µM, partner dose 0.4 µM)",87.3%
7,"COC(=O)c1sccc1S(=O)(=O)Nc1ccc(Nc2ccccc2)cc1OC + Oc1nc(-c2ccc(C(F)(F)F)cc2)nc2c1CSCC2 [XAV939] (first compound 1 µM, partner dose 2 µM)",84.9%
8,"O=C1NC(=O)/C(=C/c2ccc(-c3ccc(F)cc3O)o2)S1 + COc1cc(N2CCC(N3CCN(C)CC3)CC2)ccc1Nc1ncc(Cl)c(Nc2ccccc2S(=O)(=O)C(C)C)n1 [NVP-TAE684] (first compound 1 µM, partner dose 0.08 µM)",97.7%
9,"O=S(=O)(c1ccccc1)N(CC(F)(F)F)c1ccc(C(O)(C(F)(F)F)C(F)(F)F)cc1 + CCCCCCCCCCCC1=C(O)C(=O)C=C(O)C1=O [Embelin] (first compound 1.4 µM, partner dose 1.2 µM)",94.2%
10,"O=C(O)C(=O)Nc1sc2c(c1C(=O)O)CCNC2 + O=C1NC(=O)/C(=C/c2ccc(-c3ccc(F)cc3O)o2)S1 [AS252424] (first compound 1.66667 µM, partner dose 1 µM)",105%
11,"Cc1cc([N+](=O)[O-])ccc1NS(=O)(=O)c1cc(Cl)ccc1Cl + CC(C)CCN1c2nc(Nc3cc(F)c(O)c(F)c3)ncc2N(C)C(=O)C1C [BID1870] (first compound 1 µM, partner dose 0.2 µM)",81.6%
12,"COc1ccc2c(c1)CCC1C2CCC2(C)C(NCCCCCCN3C(=O)C=CC3=O)CCC12 (stereo not drawn) + O=S(=O)(c1ccccc1)N(CC(F)(F)F)c1ccc(C(O)(C(F)(F)F)C(F)(F)F)cc1 [T0901317] (first compound 0.4 µM, partner dose 1.4 µM)",94.4%
13,"Oc1nc(-c2ccc(C(F)(F)F)cc2)nc2c1CSCC2 + CC(C)CCN1c2nc(Nc3cc(F)c(O)c(F)c3)ncc2N(C)C(=O)C1C [BID1870] (first compound 2 µM, partner dose 0.2 µM)",81.6%
14,"COc1cc(N2CCC(N3CCN(C)CC3)CC2)ccc1Nc1ncc(Cl)c(Nc2ccccc2S(=O)(=O)C(C)C)n1 + O=c1cc(-c2cccc3c2Sc2ccccc2S3)oc(N2CCOCC2)c1 [KU55933] (first compound 0.08 µM, partner dose 1 µM)",113%
15,"N#Cc1c(O)c2c(-c3ccc(-c4ccccc4O)cc3)csc2[nH]c1=O + CCCCCCCCCCCC1=C(O)C(=O)C=C(O)C1=O [Embelin] (first compound 2 µM, partner dose 1.2 µM)",109%
16,"c1cc(-c2cnn3cc(-c4ccc(OCCN5CCCCC5)cc4)cnc23)ccn1 [Dorsomorphin] + O=c1cc(-c2cccc3c2Sc2ccccc2S3)oc(N2CCOCC2)c1 [KU55933] (first compound 0.4 µM, partner dose 1 µM)",99%
17,"COc1ccc(-c2ccc3c(N4CCOCC4)nc(N4C[C@@H](C)O[C@@H](C)C4)nc3n2)cc1CO + CCN(CC)CCCCNc1ncc2cc(-c3cc(OC)cc(OC)c3)c(NC(=O)NC(C)(C)C)nc2n1 [PD173074] (first compound 0.02 µM, partner dose 0.1 µM)",83.7%
18,"N#Cc1c(O)c2c(-c3ccc(-c4ccccc4O)cc3)csc2[nH]c1=O + COc1ccc2c(c1)CCC1C2CCC2(C)C(NCCCCCCN3C(=O)C=CC3=O)CCC12 [U73122] (first compound 2 µM, partner dose 0.4 µM)",97.4%

# Reference: the supplement of paper PMC4604168 (melanoma cell lines)
